Assay results as given in the antibiotic and cytotoxicity screens of Wong et al. (2023).
The list shows a part of the results.

Legend:
[1] = system: HSkMC (human skeletal muscle cells); experiment: cytotoxicity call (relative viability < 0.9); conditions: 10 µM
[2] = system: HepG2; experiment: cytotoxicity call (relative viability < 0.9); conditions: 10 µM
[3] = system: S. aureus RN4220; experiment: growth inhibition call (relative growth <= 0.2); conditions: 50 µM

Row | Structure (SMILES) | cytotoxicity call [1] | cytotoxicity call [2] | growth inhibition call [3]
1 | O=C1O[C@H](c2ccccc2)[C@H](c2ccccc2)N2[C@H]1[C@@H](C(=O)N1CCCCCCC1)[C@]1(C(=O)Nc3ccc(C#CCCO)cc31)[C@H]2c1ccc(O)cc1 | inactive | inactive | inactive
2 | C[C@@H]1CN([C@H](C)CO)C(=O)c2cc(NC(=O)Nc3ccccc3)ccc2O[C@@H]1CN(C)Cc1ccc(-c2ccccc2)cc1 | inactive | active | inactive
3 | C[C@H](CO)N1C[C@H](C)[C@@H](CN(C)C(=O)Nc2ccc(C(F)(F)F)cc2)Oc2c(NC(=O)c3nc4ccccc4s3)cccc2C1=O | inactive | inactive | inactive
4 | COc1ccc(CN2C[C@@H](C)[C@H](OC)CN(C)C(=O)c3cc(NC(=O)c4nc5ccccc5s4)ccc3OC[C@H]2C)cc1 | inactive | inactive | inactive
5 | COc1ccc(CN(C)C[C@H]2OCCCC[C@H](C)Oc3ccc(NC(=O)Nc4ccc5c(c4)OCO5)cc3C(=O)N([C@@H](C)CO)C[C@H]2C)cc1 | inactive | active | inactive
6 | CO[C@@H]1CN(C)C(=O)c2ccc(NS(=O)(=O)c3ccccc3F)cc2OC[C@@H](C)N(S(C)(=O)=O)C[C@H]1C | inactive | inactive | inactive
7 | CC(C)NC(=O)Nc1ccc2c(c1)C(=O)N([C@@H](C)CO)C[C@H](C)[C@@H](CN(C)S(=O)(=O)c1cn(C)cn1)OCCCC[C@@H](C)O2 | inactive | inactive | inactive
8 | COc1ccc(/C=C/CN(C/C=C/c2ccc(OC)cc2)CCCNS(=O)(=O)c2cccc3cnccc23)cc1 | inactive | inactive | inactive
9 | COc1ccc(NC(=O)Nc2ccc3c(c2)C(=O)N([C@@H](C)CO)C[C@@H](C)[C@@H](CN(C)Cc2ccncc2)OCCCC[C@H](C)O3)cc1 | inactive | inactive | inactive
10 | C[C@@H]1CCCCO[C@H](CN(C)C(=O)CCC(F)(F)F)[C@@H](C)CN([C@H](C)CO)C(=O)c2cc(NS(=O)(=O)c3cccs3)ccc2O1 | inactive | inactive | inactive
11 | C[C@H](CO)N1C[C@H](C)[C@H](CN(C)Cc2ccc(C(=O)O)cc2)Oc2c(NC(=O)Nc3ccc(C(F)(F)F)cc3)cccc2C1=O | inactive | inactive | inactive
12 | COc1ccc(S(=O)(=O)Nc2ccc3c(c2)C(=O)N([C@@H](C)CO)C[C@H](C)[C@@H](CN(C)Cc2ccccc2)OCCCC[C@H](C)O3)cc1 | inactive | inactive | inactive
13 | C[C@@H]1CCCCO[C@@H](CN(C)C(=O)Cc2ccccc2)[C@@H](C)CN([C@@H](C)CO)C(=O)c2cc(NC(=O)C3CCCCC3)ccc2O1 | inactive | inactive | inactive
14 | C[C@H](CO)N1C[C@H](C)[C@H](CN(C)C(=O)c2cnccn2)Oc2cc(C3=CCCC3)ccc2S1(=O)=O | inactive | inactive | inactive
15 | C[C@@H]1CNC[C@H](C)N1 | inactive | inactive | inactive
16 | CS(=O)(=O)n1cc2c(n1)CN([C@H]1CO[C@H](c3cc(F)ccc3F)[C@@H](N)C1)C2 | inactive | inactive | inactive
17 | Cc1noc(C)c1S(=O)(=O)Nc1ccc2c(c1)C(=O)N([C@H](C)CO)C[C@H](C)[C@@H](CN(C)S(=O)(=O)c1ccc(F)cc1)O2 | inactive | inactive | inactive
18 | COc1ccc(NC(=O)Nc2ccc3c(c2)C(=O)N([C@@H](C)CO)C[C@@H](C)[C@@H](CN(C)C(=O)Nc2ccc(C(F)(F)F)cc2)O3)cc1 | inactive | inactive | inactive
19 | C[C@H](CO)N1C[C@H](C)[C@@H](CN(C)C(=O)C2CCOCC2)Oc2ncc(C#Cc3ccccc3F)cc2C1=O | inactive | inactive | inactive
20 | C[C@@H]1CCCCO[C@@H](CN(C)Cc2ccc(Cl)c(Cl)c2)[C@H](C)CN([C@@H](C)CO)C(=O)c2cc(NC(=O)Nc3ccc4c(c3)OCO4)ccc2O1 | inactive | inactive | inactive
21 | CN1C(CC(=O)c2ccccc2)CCCC1CC(O)c1ccccc1.Cl (configuration not stated) | inactive | inactive | inactive
22 | Cc1noc(C)c1S(=O)(=O)Nc1ccc2c(c1)C(=O)N([C@H](C)CO)C[C@@H](C)[C@@H](CN(C)Cc1ccc(Cl)c(Cl)c1)OCCCC[C@H](C)O2 | active | active | inactive
23 | COCC(=O)Nc1ccc2c(c1)OC[C@H](C)N(Cc1ccccc1F)C[C@H](C)[C@@H](OC)CN(C)C2=O | inactive | inactive | inactive
24 | C[C@H]1CN([C@@H](C)CO)C(=O)c2cccc(NC(=O)Nc3ccc(F)cc3)c2O[C@H]1CN(C)Cc1ccc(C(=O)Nc2ccccc2N)cc1 | inactive | active | inactive
